These results are taken from PMC12040169 (PLOS Biology, 2025).

The other results are listed elsewhere or left out.

The test deals with T1, C. trachomatis L2/434/Bu expressing GFP (CTL2-GFP).
T1 construct: L2/434/Bu GFP intracellular growth in HeLa cells
The arrangement: species or system HeLa; C. trachomatis total inclusion area by high-content imaging, normalised to DMSO. The note with it: total inclusion area; 28.5 h, 10 µM; inhibitor. Summed up:
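High-content images of fixed, Hoechst-stained infected cultures supply inclusion area and count (growth) plus nuclei number (viability), complementing bulk GFP/resorufin fluorescence. MIC determination is unchanged from the primary assay.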
`CCOC(=O)N1CCC(NC(=O)N2CCN(c3ccccc3)CC2)CC1` [CBK155210]: the “% of control remaining” value is 103.006.

`CCOc1cc(CNCc2ccccn2)cc(Cl)c1OCC` [CBK268516C]: the “% of control remaining” value is listed as 93.8314.

With `Nc1nc(SCCCN2C(=O)c3cccc4cccc(c34)C2=O)nc2sc3c(c12)CCCC3` [CBK264433], the “% of control remaining” value was 121.856.

Turning to `CS(=O)(=O)NC[C@H]1O[C@@H](Cc2nc(-c3ccc(F)cc3)no2)[C@H](O)[C@@H]1O` [CBK288906], the “% of control remaining” value was determined as 111.882.

As for `CCc1n[nH]c(C(=O)NCC(c2ccc(F)cc2)N2CCCC2)c1C` (centres unmarked) [CBK282630], the “% of control remaining” value worked out at 121.869.

For `CC(=O)Nc1ccc(-c2ccc(C(=O)NC3CC3)cn2)cc1` [CBK158854], the “% of control remaining” value was found to be 97.3154.

`CN(C)c1ccc(CN2CC[C@H](c3nc4cccc(C(N)=O)c4[nH]3)C2)cc1` [CBK289414]: the “% of control remaining” value worked out at 80.4345.

For the compound `O=c1c(N2CCC(Sc3ccccc3)CC2)nccn1Cc1ccc(-n2cncn2)cc1` [CBK153655], the “% of control remaining” value was 74.4375.

For `FC(F)(F)c1cccnc1OCc1cccnc1` [CBK115780], the “% of control remaining” value turned out to be 71.7518.

On to `CC1CCc2c(C(=O)N3CCC4(CC3)NC(=O)NC4=O)csc2C1` (centres unmarked) [CBK305741], for which the “% of control remaining” value is 24.3617.

In the case of `Cc1ccc(NC(=O)N2CCc3ccccc3C2)cc1` [CBK155309], the “% of control remaining” value was determined as 69.497.

`CCOc1ncccc1NC(=O)c1cnc2c(cnn2CC(C)C)c1` [CBK304288]: the “% of control remaining” value was found to be 98.0175.

Turning to `CC(C)n1cc(C(=O)NCc2cccnc2N(C)C2CCCCC2)cn1` [CBK307593], the “% of control remaining” value is given as 99.2158.

On to `c1ccc2c3c([nH]c2c1)C12CCN(CC1)C(c1ccncc1)N2CC3` (centres unmarked) [CBK284434], for which the “% of control remaining” value is 74.6137.

Take `COCCn1ccnc1C1CCCN(C(=O)COc2ccccc2Cl)C1` (centres unmarked) [CBK307211]: the “% of control remaining” value came to 75.7277.

On to `COC(=O)c1scc(NS(=O)(=O)c2ccc(Cl)cc2Cl)c1C(=O)OC` [CBK026681], for which the “% of control remaining” value came out at 82.774.

Take `CCC(=O)Nc1ccc(-n2cnc(C(=O)NCc3cccnc3)c2)nc1` [CBK288603]: the “% of control remaining” value is reported as 115.668.

As to `O=C(CSc1nnc(Cc2cccc3ccccc23)n1-c1ccccc1)NC1CCCCC1` [CBK266052], the “% of control remaining” value was determined as 119.133.

For `Nc1nc(OCc2ccncc2)cnc1-c1cnn(Cc2ccccc2)c1` [CBK145194], the “% of control remaining” value stood at 96.2227.

Turning to `CCOC(=O)c1c(NC(=O)NCc2ccncc2)sc2c1CCC2` [CBK307591], the “% of control remaining” value turned out to be 72.6238.

Regarding `O=C(Nc1ccc(Cl)c(Cl)c1)c1cnc2sccn2c1=O` [CBK287449], the “% of control remaining” value worked out at 92.1769.

As for `COc1cc([N+](=O)[O-])ccc1NC(=S)Nc1cccc(S(=O)(=O)N2CCOCC2)c1` [CBK267042], the “% of control remaining” value was 129.99.

Consider `Cc1ccsc1CN(Cc1cncn1C)CC(C)O` (centres unmarked) [CBK283033], for which the “% of control remaining” value came to 96.2021.

For `Cc1ccc(C)c(OCC(=O)N(Cc2nc(-c3ccccc3)no2)C2CCCCC2)c1` [CBK269067], the “% of control remaining” value was 100.331.

For `O=C(O)CCc1nnc(S)n1Cc1ccccc1` [CBK286926], the “% of control remaining” value turned out to be 113.119.

With `COc1cccc(CC(=O)Nc2ncccc2C)c1` [CBK304982], the “% of control remaining” value is 135.682.

`c1cnn(CC2CCCCN2c2ncnc3ccsc23)c1` (centres unmarked) [CBK304843]: the “% of control remaining” value amounted to 84.0316.

`CC(C)N1CNc2c(c(=O)nc(O)n2Cc2ccccc2)C1` [CBK291139]: the “% of control remaining” value stood at 102.899.

On to `CCOC1C(OCC)N(S(=O)(=O)c2ccc(C)cc2)CCN1S(=O)(=O)c1ccc(C)cc1` (centres unmarked) [CBK261832], for which the “% of control remaining” value came to 88.0497.

`CNS(=O)(=O)N1CCN(S(=O)(=O)NC)CC1` [CBK007064]: the “% of control remaining” value amounted to 24.0354.

In the case of `CS(=O)(=O)CCNC(=O)c1cnc(-c2cccc(C(F)(F)F)c2)c(-c2ccncc2)c1` [CBK036661], the “% of control remaining” value turned out to be 86.1283.

As for `Cc1ccccc1OCCSc1nc2ccccc2n1CCO` [CBK262523], the “% of control remaining” value is 99.7682.

`COc1cccc(NC(=S)NCCc2ccccn2)c1` [CBK265245]: the “% of control remaining” value is 89.6522.

As for `CC(=O)Nc1cnn(-c2ccc(C(=O)N3CCCCC3c3nc4ccccc4[nH]3)cc2)c1` (centres unmarked) [CBK291109], the “% of control remaining” value came out at 102.931.

As for `COc1ccc(-c2cc(C3CCN(C(=O)C4CC4)C3)[nH]n2)cc1` (centres unmarked) [CBK285263], the “% of control remaining” value is listed as 98.3507.

For `Cc1ccccc1-c1cnc(N)c(-c2ccc(O)cc2)n1` [CBK115544], the “% of control remaining” value was 87.9026.

Take `CC(C)c1cccc(N2CC(C(=O)Nc3cc(S(C)(=O)=O)ccc3F)CC2=O)c1` (centres unmarked) [CBK296751]: the “% of control remaining” value amounted to 111.508.

For the compound `Cc1noc(C)c1S(=O)(=O)Nc1cccc(-c2cnco2)c1` [CBK067108], the “% of control remaining” value is 95.4256.

For the compound `Cc1ccc(C)c(OCCNCCN(C)C)c1Cl` [CBK267816C], the “% of control remaining” value was found to be 92.4412.

Regarding `S=c1nc(-c2ccco2)n(Cc2ccccc2)c(=S)n1/C(=N/Cc1ccccc1)c1ccco1` [CBK223550], the “% of control remaining” value amounted to 107.002.

As to `NCCNC(=O)c1cc(-c2ccc(Cl)cc2)[nH]n1` [CBK160975], the “% of control remaining” value worked out at 104.522.

As for `Cc1cccnc1C(Cc1ccsc1)NS(=O)(=O)c1ccc2[nH]c(=O)[nH]c(=O)c2c1` (centres unmarked) [CBK286356], the “% of control remaining” value came to 76.065.

On to `CCOC(=O)C(C)n1nc(C)n2c(cc3ccsc32)c1=O` (centres unmarked) [CBK284079], for which the “% of control remaining” value was found to be 52.8905.

Turning to `O=C(c1cccnc1)N1CCC(c2cccc(Cc3ccc(C(F)(F)F)cc3)n2)CC1` [CBK286222], the “% of control remaining” value was 64.8025.

Turning to `Cc1nc2c(c(=O)[nH]1)CN(C(=O)c1cc(C3CC3)oc1C)CC2` [CBK283650], the “% of control remaining” value stood at 96.3504.

Take `CCOC(=O)c1c(NC(=O)Cn2cnc3ccccc32)sc2c1CCCC2` [CBK260917]: the “% of control remaining” value stood at 73.229.

With `CC(C)CC(=O)N1C[C@H]2CCCN(Cc3ccsc3)[C@H]2C1` [CBK285290], the “% of control remaining” value stood at 91.3422.

For the compound `COc1cccc(CNC(=O)NC(=O)C2CCN(C)CC2)c1` [CBK034828], the “% of control remaining” value is 88.1494.

Regarding `CCOC(=O)C1CCCN(Cc2c(C)nn(C)c2Cl)C1` (centres unmarked) [CBK304838], the “% of control remaining” value came to 97.753.

Turning to `O=[N+]([O-])c1ccc(F)cc1NS(=O)(=O)c1ccccc1` [CBK000674], the “% of control remaining” value was found to be 103.446.

On to `CCCCC(c1cccnc1)N(C)C(=O)c1cnc(C)c(C)c1` (centres unmarked) [CBK307121], for which the “% of control remaining” value is listed as 105.544.

Consider `CC(C)Nc1nc2ccccc2nc1Sc1cccc(C(=O)O)c1` [CBK115955T], for which the “% of control remaining” value is given as 90.827.

On to `COc1ccc2cc(CNc3ccc(F)c(F)c3)c(=O)[nH]c2c1` [CBK281934], for which the “% of control remaining” value is 104.722.

Consider `O=C(O)C1CC=CCC1C(=O)Nc1ccc(S(=O)(=O)N2CCc3ccccc32)cc1` (centres unmarked) [CBK268122], for which the “% of control remaining” value came out at 99.4098.

In the case of `CC(=O)c1ccc(-c2cnc3[nH]c(=O)n([C@H](C)c4ccccc4)c3n2)s1` [CBK064375], the “% of control remaining” value was 129.933.

`CC(C)n1nnnc1SCCC(=O)N1CCN(c2ccc(F)cc2)CC1` [CBK304602]: the “% of control remaining” value was 56.7004.

Turning to `OCCN1CCN(c2nc(NCC3CCCO3)c3ccccc3n2)CC1` (centres unmarked) [CBK266659C], the “% of control remaining” value was 124.238.

Take `Cc1ccc(Nc2nccc(C3CCCN(Cc4ccc5[nH]ccc5c4)C3)n2)nc1` (centres unmarked) [CBK286122]: the “% of control remaining” value came out at 74.0881.

As for `Cc1cc(NCn2nnc3ccccc32)ccc1Br` [CBK057031], the “% of control remaining” value is reported as 67.963.

As for `Cc1nn(C)c(N2CCNCC2)c1NC(=O)Cc1cn(C)c2ccccc12` [CBK050254T], the “% of control remaining” value was found to be 98.5044.

As for `Cc1ccccc1-c1ccccc1CC1(C(=O)N(C)C)CCN(C(=O)CC(C)(C)C)CC1` [CBK285715], the “% of control remaining” value was 63.1641.

Take `COc1ccc(C(C)NC(=O)c2c3c(nn2C)CCCC3)cc1F` (centres unmarked) [CBK281406]: the “% of control remaining” value came to 57.6645.

In the case of `Cc1cc(COc2nccnc2N2CCN(CCCO)CC2)no1` [CBK084197], the “% of control remaining” value is on record as 92.7126.

Turning to `NC(=O)CSc1nnc(NC(=O)c2ccccc2)s1` [CBK287628], the “% of control remaining” value is recorded as 123.041.

Take `CN(C)c1cccc(-c2cccc(NCC(c3cccnc3)N(C)C)n2)c1` (centres unmarked) [CBK037697]: the “% of control remaining” value was determined as 77.3423.

Take `CCCCCNC(=O)C(Cc1ccc(O)c(C(=O)OCc2ccccc2)c1)NC(=O)OC(C)(C)C` (centres unmarked) [CBK001708]: the “% of control remaining” value is recorded as 50.6076.

As for `CCOC(=O)c1cnc(Nc2nc3ccccc3o2)nc1CN1CCN(c2ccccc2)CC1` [CBK266927], the “% of control remaining” value is listed as 114.425.

In the case of `COc1ccc(C2CC(=O)C=C(Nc3cc(Cl)ccc3O)C2)cc1` (centres unmarked) [CBK263542], the “% of control remaining” value was 22.9139.

`COc1ccc(Cl)cc1N1CCN(CCO)CC1` [CBK138339]: the “% of control remaining” value was 94.6146.

As to `COc1ccc(Oc2cncc(OC3CCN(CC4CC4)C3)n2)cc1OC` (centres unmarked) [CBK084412], the “% of control remaining” value is recorded as 82.3291.

Consider `Nc1ncc(-c2cccc([N+](=O)[O-])c2)nc1-c1ccc(O)cc1` [CBK122507], for which the “% of control remaining” value is recorded as 99.3587.

For `COc1ccc(C(=O)OC(C)(C)C)c(-c2nccnc2N[C@@H](C)c2ccccc2)c1` [CBK036994], the “% of control remaining” value was 78.7806.

As for `Cc1nn(C)c(Oc2cccc(C(F)(F)F)c2)c1C(=O)O` [CBK000324], the “% of control remaining” value was found to be 92.47.

As to `Cc1cc(=O)n2c3c(cc(S(=O)(=O)NC4CC4)cc13)CC2` [CBK218959], the “% of control remaining” value is listed as 47.2302.

As to `CC(=O)C(CC(=O)O)C1=C(O)CC(C)(C)CC1=O` (centres unmarked) [CBK287127], the “% of control remaining” value is recorded as 89.8384.

As to `CC(O)(CC#N)c1ccccc1` (centres unmarked) [CBK028508], the “% of control remaining” value is reported as 87.4805.

`O=C(Cc1ccc(F)cc1)N1CCCC1c1cccc(Cc2ccc(F)cc2)n1` (centres unmarked) [CBK286234]: the “% of control remaining” value is listed as 124.207.

As for `CCOc1ccc(NC(NC(=O)Nc2ccccc2)C(Cl)(Cl)Cl)cc1` (centres unmarked) [CBK261294], the “% of control remaining” value was 100.977.

Consider `Cc1ccc(S(=O)(=O)Nc2ccc(C(=O)Nc3ccc(S(=O)(=O)N4CCCCC4)cc3)cc2)cc1` [CBK269000], for which the “% of control remaining” value worked out at 83.9349.

For the compound `Cc1cnn(C(C)C(=O)N2CCc3c(nc(N(C)C)nc3N(C)C)C2)c1` (centres unmarked) [CBK307556], the “% of control remaining” value is 68.2495.
